The least precise scores are not listed. The source holds two more conditions with little spread; they are left out. Read del as a deletion of the residues named and ins as an insertion between two positions. For part of these data: The concentration of ogerin is not given here.
B1: GPR68, Q15743 (parent)
chain: MGNITADNSSMSCTIDHTIHQTLAPVVYVTVLVVGFPANCLSLYFGYLQIKARNELGVYLCNLTVADLFYICSLPFWLQYVLQHDNWSHGDLSCQVCGILLYENIYISVGFLCCISVDRYLAVAHPFRFHQFRTLKAAVGVSVVIWAKELLTSIYFLMHEEVIEDENQHRVCFEHYPIQAWQRAINYYRFLVGFLFPICLLLASYQGILRAVRRSHGTQKSRKDQIQRLVLSTVVIFLACFLPYHVLLLVRSVWEASCDFAKGVFNAYHFSLLLTSFNCVADPVLYCFVSETTHRDLARLRGACLAFLTCSRTGRAREAYPLGAPEASGKSGAQGEEPELLTKLHPAFQTPNSPGSGGFPTGRLA

Assays:
[1] = variants of: B1; assay: cAMP reporter score (Enrich2 score, wild type = 0); higher = more signal; HEK293T, FACS bins
[2] = variants of: B1; assay: surface expression score (Enrich2 score, wild type = 0); higher = more signal; HEK293T, FACS bins

Variant | cAMP reporter score ([1]; pH 5.5) | cAMP reporter score ([1]; pH 6, modulator: ogerin) | cAMP reporter score ([1]; pH 6.5, modulator: ogerin) | surface expression score [2] | cAMP reporter score ([1]; pH 6)
D85Q | -0.345 | -0.181 | 0.574 | 0.652 | –
D85R | -0.839 | 0.137 | 0.742 | -0.204 | -0.939
D85S | -0.284 | -0.218 | -0.248 | -0.159 | -0.704
D85T | -0.386 | -1.05 | -0.394 | 0.472 | –
D85V | -0.854 | -0.954 | – | -2.15 | -1.34
D85W | -0.206 | -0.364 | -0.232 | -1.74 | -0.352
N86A | -1.02 | -0.695 | -1.27 | 0.259 | -0.914
N86C | -1.62 | -1.3 | -1.04 | 0.207 | -1.17
N86D | -0.291 | 0.218 | 0.193 | -0.042 | 0.961
N86E | -0.808 | -2.5 | -0.136 | 0.002 | -1.79
N86F | -0.587 | -0.89 | -2.44 | -0.375 | –
N86G | -1.51 | -0.883 | -0.574 | 0.42 | -0.285
N86H | 1.46 | 0.087 | 2.96 | -0.753 | –
N86I | -0.945 | -2.45 | -1.13 | -1.2 | –
N86K | -1.68 | -2.14 | -1.41 | 0.573 | 0.68
N86M | -1.89 | – | -1.25 | -0.644 | -1.72
N86P | -1.67 | -2.12 | -1.08 | -1.89 | -1.4
N86Q | -1.55 | -1 | -0.428 | 1.34 | -0.413
N86R | -0.603 | -1.48 | 0.144 | 1.03 | -0.696
N86S | -1.33 | -0.942 | -0.607 | -0.194 | -0.152
N86T | -1.1 | -0.629 | -1.72 | 0.644 | -0.809

Variant | cAMP reporter score ([1]; pH 5.5) | cAMP reporter score ([1]; pH 6, modulator: ogerin) | cAMP reporter score ([1]; pH 6.5, modulator: ogerin) | surface expression score [2] | cAMP reporter score ([1]; pH 6)
N86V | -1.39 | -0.927 | -1.27 | -0.811 | -0.546
N86W | -1.31 | -1.24 | -0.72 | -1.82 | -0.403
N86Y | -1.56 | – | -1.63 | -0.603 | -1.04
N86_W87del | -1.87 | -1.71 | -0.571 | -0.766 | 0.608
N86_W87insGSG | -1.05 | -0.967 | -0.607 | 1.15 | -0.136
W87A | -0.652 | -1.82 | -0.001 | -1.4 | -0.553
W87C | -1.98 | -1.59 | -1.39 | -0.733 | -0.965
W87D | -1.94 | – | -1.38 | -0.594 | –
W87E | -1.49 | – | -1.14 | -0.445 | -1.47
W87F | -1.44 | -1.86 | -1.75 | -0.553 | -1.06
W87G | -1.83 | -0.6 | -1.61 | -0.576 | -1.14
W87H | -1.45 | -1.09 | -0.679 | -0.045 | -0.51
W87I | -0.56 | -0.669 | -0.883 | -1.78 | -0.479
W87K | -1.69 | -1.71 | -1.15 | -0.465 | -0.957
W87L | -1.42 | – | -0.84 | 0.213 | –
W87M | -1.6 | -0.968 | -0.588 | -0.83 | -0.728
W87N | -1.94 | -0.497 | -1.16 | -1.33 | -0.74
W87P | -0.557 | -0.329 | -1.18 | -0.29 | -1.21
W87Q | -1.04 | -1.37 | -0.996 | -1.5 | -0.342
W87R | -0.917 | -1.3 | -1.07 | 0.007 | -1.29
W87S | -1.39 | -1.24 | -0.747 | 0.545 | -0.545

Variant | cAMP reporter score ([1]; pH 5.5) | cAMP reporter score ([1]; pH 6, modulator: ogerin) | cAMP reporter score ([1]; pH 6.5, modulator: ogerin) | surface expression score [2] | cAMP reporter score ([1]; pH 6)
W87T | -0.625 | -1.34 | -0.303 | -0.006 | –
W87V | -1.17 | -1.63 | -0.439 | 0.309 | -0.232
W87Y | -0.929 | -0.635 | -1.62 | 0.67 | -0.181
H89A | -0.806 | -1.38 | -1.23 | 0.886 | -1
H89C | -1.39 | -2.48 | -0.964 | 0.212 | -0.034
H89D | -0.842 | -1.04 | -1.17 | 0.327 | -1.08
H89E | -1.14 | – | -0.826 | 0.734 | -1.17
H89F | 0.195 | 0.275 | 1.71 | -0.644 | 1.51
H89G | 0.212 | -0.395 | 0.934 | 0.551 | 0.639
H89I | 0.316 | 0.37 | -0.997 | 1.19 | -0.817
H89K | -1.18 | – | -0.662 | 1.15 | 1.46
H89L | 0.17 | 0.839 | 1.33 | -0.728 | 1.25
H89M | 0.443 | 0.621 | 1.05 | 0.266 | 0.757
H89N | 0.388 | -0.984 | -0.498 | 1.01 | 0.899
H89P | -1.01 | -2.91 | -0.611 | -0.934 | -1.06
H89Q | -0.539 | -1.3 | -1.36 | 1.07 | -1.19
H89R | -1.03 | -0.941 | -0.722 | 0.408 | 0.156
H89S | -0.563 | -1.07 | -1.27 | 0.38 | -0.54
H89T | 0.583 | 0.06 | -0.895 | 1.16 | -0.775
H89V | -0.94 | – | -0.553 | 1.1 | –
H89W | 1.37 | 1.03 | 3.35 | 0.316 | 3.06

Source: the GPR68 mutational scans of Howard et al. (2025)
